From the supplement of paper PMC8728848
Some of the results follow.

Experiments:
Assay in all cases: glycan array binding signal (z-score within array); higher = stronger binding
Settings in all cases: glycan notation: IUPAC condensed, linker removed
[1] = molecular target: Fuc(a1-2)[GalNAc(b1-3)]Gal
How it was run: (§1)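 The binding signal is a Z-score computed within each array and averaged over linkers. Arrays of the same protein sequence at different concentrations or buffers were also averaged together. Data originate from 3228 arrays in the Consortium for Functional Glycomics database, kept only where the protein sequence was available.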

Fuc(a1-3)GlcNAc = molecular target: Fuc(a1-3)GlcNAc
How it was run: as §1

[2] = molecular target: Fuc(a1-3)[Gal(b1-4)]Glc6S
How it was run: as §1

[3] = molecular target: Fuc(a1-3)[Gal(b1-4)]GlcNAc
How it was run: as §1

[4] = molecular target: Fuc(a1-3)[Gal(b1-4)]GlcNAc(b1-2)Man
How it was run: as §1

[5] = molecular target: Fuc(a1-3)[Gal(b1-4)]GlcNAc(b1-2)Man(a1-3)[Fuc(a1-3)[Gal(b1-4)]GlcNAc(b1-2)Man(a1-6)]Man(b1-4)GlcNAc(b1-4)GlcNAc
How it was run: as §1

[6] = molecular target: Fuc(a1-3)[Gal(b1-4)]GlcNAc(b1-2)Man(a1-3)[Fuc(a1-3)[Gal(b1-4)]GlcNAc(b1-2)Man(a1-6)]Man(b1-4)GlcNAc(b1-4)[Fuc(a1-6)]GlcNAc
How it was run: as §1

[7] = molecular target: Fuc(a1-3)[Gal(b1-4)]GlcNAc(b1-3)Gal(b1-3)[Fuc(a1-4)]GlcNAc
How it was run: as §1

[8] = molecular target: Fuc(a1-3)[Gal(b1-4)]GlcNAc(b1-3)Gal(b1-4)[Fuc(a1-3)]GlcNAc
How it was run: as §1

[9] = molecular target: Fuc(a1-3)[Gal(b1-4)]GlcNAc(b1-3)Gal(b1-4)[Fuc(a1-3)]GlcNAc(b1-3)Gal(b1-4)[Fuc(a1-3)]GlcNAc
How it was run: as §1

[10] = molecular target: Fuc(a1-3)[Gal(b1-4)]GlcNAc(b1-3)GalNAc
How it was run: as §1

[11] = molecular target: Fuc(a1-3)[Gal(b1-4)]GlcNAc(b1-6)GalNAc
How it was run: as §1

[12] = molecular target: Fuc(a1-3)[Gal(b1-4)]GlcNAc(b1-6)[Gal(b1-3)GlcNAc(b1-3)]Gal(b1-4)Glc
How it was run: as §1

[13] = molecular target: Fuc(a1-3)[Gal(b1-4)]GlcNAc6S
How it was run: as §1

[14] = molecular target: Fuc(a1-3)[Gal3S(b1-4)]Glc
How it was run: as §1

[15] = molecular target: Fuc(a1-3)[Gal3S(b1-4)]GlcNAc
How it was run: as §1

[16] = molecular target: Fuc(a1-3)[Gal3S(b1-4)]GlcNAc6S
How it was run: as §1

[17] = molecular target: Fuc(a1-3)[GalNAc(b1-4)]GlcNAc
How it was run: as §1

[18] = molecular target: Fuc(a1-3)[GalNAc(b1-4)]GlcNAc6S
How it was run: as §1

Fuc(a1-4)GlcNAc = molecular target: Fuc(a1-4)GlcNAc
How it was run: as §1

Fuc(b1-3)GlcNAc = molecular target: Fuc(b1-3)GlcNAc
How it was run: as §1

Gal(a1-2)Gal = molecular target: Gal(a1-2)Gal
How it was run: as §1

Gal(a1-3)Gal = molecular target: Gal(a1-3)Gal
How it was run: as §1

Gal(a1-3)Gal(b1-3)GlcNAc = molecular target: Gal(a1-3)Gal(b1-3)GlcNAc
How it was run: as §1

[19] = molecular target: Gal(a1-3)Gal(b1-3)GlcNAc(b1-2)Man
How it was run: as §1

[20] = molecular target: Gal(a1-3)Gal(b1-3)GlcNAc(b1-2)Man(a1-3)[Gal(a1-3)Gal(b1-3)GlcNAc(b1-2)Man(a1-6)]Man(b1-4)GlcNAc(b1-4)GlcNAc
How it was run: as §1

[21] = molecular target: Gal(a1-3)Gal(b1-3)GlcNAc(b1-3)GalNAc
How it was run: as §1

[22] = molecular target: Gal(a1-3)Gal(b1-3)GlcNAc(b1-6)GalNAc
How it was run: as §1

[23] = molecular target: Gal(a1-3)Gal(b1-3)[Fuc(a1-4)]GlcNAc(b1-2)Man(a1-3)[Gal(a1-3)Gal(b1-3)[Fuc(a1-4)]GlcNAc(b1-2)Man(a1-6)]Man(b1-4)GlcNAc(b1-4)GlcNAc
How it was run: as §1

Gal(a1-3)Gal(b1-4)Glc = molecular target: Gal(a1-3)Gal(b1-4)Glc
How it was run: as §1

B1: Di AAL2 (Agrocybe aegerita) (protein)
chain: MTSNVITQDLPIPVASRGFADIVGFGLDGVVIGRNAVNLQPFLAVKNFAQNAGGWLTTKHVRLIADTTGTGKGDIVGFGNAGVYVSVNNGKNTFADPPKMVIANFGYDAGGWRVEKHLRYLADIRKIGRADIIGFGEKGVLVSRNNGGLNFGPATLVLKDFGYDAGGWRLDRHLRFLADVTGNGHLDIVGFGDKHVFISRNNGDGTFAPAKSVIDNFCIDAGGWKIGDHPRFVADLTGDGTADIIGCGKAGCWVALNNGGGVFGQVKLVINDFGTDKGWQAAKHPRFIADLTGNGRGDVVGFGNAGVYVALNNGDGTFQSAKLVLKDFGVQQGWTVSKHRRFVVDLTGDGCADIIGFGEKETLVSYNDGKGNFGPVKALTNDFSFSGGKWAPETTVCWMANLDSSRHPAPAPMTSNVITQDLPIPVASRGFADIVGFGLDGVVIGRNAVNLQPFLAVKNFAQNAGGWLTTKHVRLIADTTGTGKGDIVGFGNAGVYVSVNNGKNTFADPPKMVIANFGYDAGGWRVEKHLRYLADIRKIGRADIIGFGEKGVLVSRNNGGLNFGPATLVLKDFGYDAGGWRLDRHLRFLADVTGNGHLDIVGFGDKHVFISRNNGDGTFAPAKSVIDNFCIDAGGWKIGDHPRFVADLTGDGTADIIGCGKAGCWVALNNGGGVFGQVKLVINDFGTDKGWQAAKHPRFIADLTGNGRGDVVGFGNAGVYVALNNGDGTFQSAKLVLKDFGVQQGWTVSKHRRFVVDLTGDGCADIIGFGEKETLVSYNDGKGNFGPVKALTNDFSFSGGKWAPETTVCWMANLDSSRH
- glycan array binding signal (z-score) [1]: -0.337
- glycan array binding signal (z-score) (Fuc(a1-3)GlcNAc): -0.337
- glycan array binding signal (z-score) [2]: -0.322
- glycan array binding signal (z-score) [3]: -0.335
- glycan array binding signal (z-score) [4]: -0.316
- glycan array binding signal (z-score) [5]: -0.33
- glycan array binding signal (z-score) [6]: -0.336
- glycan array binding signal (z-score) [7]: -0.298
- glycan array binding signal (z-score) [8]: -0.275
- glycan array binding signal (z-score) [9]: -0.334
- glycan array binding signal (z-score) [10]: -0.333
- glycan array binding signal (z-score) [11]: -0.319
- glycan array binding signal (z-score) [12]: -0.328
- glycan array binding signal (z-score) [13]: -0.119
- glycan array binding signal (z-score) [14]: -0.336
- glycan array binding signal (z-score) [15]: -0.342
- glycan array binding signal (z-score) [16]: -0.339
- glycan array binding signal (z-score) [17]: -0.332
- glycan array binding signal (z-score) [18]: -0.322
- glycan array binding signal (z-score) (Fuc(a1-4)GlcNAc): -0.305
- glycan array binding signal (z-score) (Fuc(b1-3)GlcNAc): -0.336
- glycan array binding signal (z-score) (Gal(a1-2)Gal): -0.337
- glycan array binding signal (z-score) (Gal(a1-3)Gal): -0.332
- glycan array binding signal (z-score) (Gal(a1-3)Gal(b1-3)GlcNAc): -0.273
- glycan array binding signal (z-score) [19]: -0.328
- glycan array binding signal (z-score) [20]: -0.321
- glycan array binding signal (z-score) [21]: -0.324
- glycan array binding signal (z-score) [22]: -0.323
- glycan array binding signal (z-score) [23]: -0.26
- glycan array binding signal (z-score) (Gal(a1-3)Gal(b1-4)Glc): -0.338
